Values marked as one replicate rest on one cluster of the flow cell; about a third of the high ones do not repeat.
System: ATP
Assay: switch fluorescence ratio, 500 uM ATP over buffer (Cy3 cluster intensity, sum of 5 cycles each) (fold (ratio)); higher = stronger signal-on switching upon ATP binding; sequences stand for … in TCGTCGGCAGCGTCAGATGTGTATAAGAGACAGTTTTTTTTTTTTTTTTTTTTTTTTT…TC
Conditions: aptamer strand: ATP DNA aptamer (quencher-CACCTGGGGGAGTATTGCGGAGGAAGG + anchor), 100 nM annealed; ATP concentration: 500 uM; one replicate
In short: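 Per cluster, summed Cy3 intensity from the target cycles was divided by that from the buffer cycles to give the fluorescence ratio, then averaged per switch-domain sequence. Clusters outside 100-1000 RFU were excluded. The Cy3-labelled switching-strand clusters, on a modified Illumina MiSeq flow-cell, were annealed to 100 nM quencher-labelled ATP aptamer and imaged in selection buffer, then after 15 min with 500 uM ATP at 22 °C, for five cycles with NaOH stripping and re-annealing between them.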
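Also: ATP exposure 15 min at 22 °C before imaging.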

Sequence | switch fluorescence ratio
AAAGCGATAT | 1.7
GTTCATCATC | 1.01
AAGACATTCC | 2.24
CCTACATATT | 1.04
CAGAGAATGG | 1.02
CCAGGTGCTG | 1.82
TACCATTGGT | 1.03
CACATCCCCC | 1.16
CTACCCGGAA | 1.93
TTGTGGGCCT | 1.03
TGCCAACATC | 1.01
GCGGGGAAGG | 1.02
TCGGTTATTA | 1.02
TATCTCTCGT | 1.01
TATGCCCCCG | 1.04
CGAGCTCATC | 1.01
GGGTTGGCGG | 0.977
CAAAGGTCGA | 0.948
GCGTGGACGT | 1.05
TCCCGGAGGC | 1.12
AGGATGTCAG | 1.03
TGCATAATAA | 1.01

Sequence | switch fluorescence ratio
CACTGTGGTC | 1.01
TTTCAATCGC | 1.04
TATGTATCAA | 0.975
TTCTTTGTTA | 1.03
CAATAATGCG | 1.02
TACTATTCGG | 1.02
CAAAGCGGCC | 1.22
TCGCAGGTGG | 0.964
TCGCTCACGC | 1.06
GTTAGAGCTG | 1.09
ATAGTGAGAG | 1.04
AGCGTATACG | 1.01
TGCCTCTTAT | 1.08
GCGAGAAGGT | 0.976
CCTGGTGTG | 1.1
ATAAACTTCT | 1.09
CTCCCATGTT | 1.08
AACGGCGGAT | 1.07
ACCTCAAGGA | 0.995
GGGGGTTTCT | 0.997
CTAAAAAGGA | 0.986
ATAGGCCTTA | 1.02

Sequence | switch fluorescence ratio
TTTGTCTTCC | 1.68
AGAATTGAGC | 1.01
CTTGGTACGT | 1.04
CGCCGCGCTG | 1.16
CGCCGACTAT | 1.16
CGACTTGTTG | 1.03
CATATGCCAC | 1.05
GGCTTGAAAC | 1.02
TAATCACACT | 1.03
AAAGTTTGTG | 0.95
TTGTCGTACC | 1.08
TAGGTCCGAT | 0.996
GCTGAGTGTG | 1
AAGTAAAAGG | 1.03
CTGGAAGGTC | 1.03
ATAGATACTT | 0.979
AAATTATAAT | 0.995
TACGGCTTAT | 0.961
TACTAGGGTG | 1.15
CCGTTCTAAG | 1.02
TTAGAACTT | 0.969
TTAGATTAGG | 0.99

Sequence | switch fluorescence ratio
GCCGTTTTGT | 1.01
AAGTTGAA | 0.944
TCCGCATTGA | 1.91
CGCCTTATGG | 1.03
GTGTGGAAG | 0.955
CCCCGTGTTC | 1.63
TGCTTGAGTT | 1.06
GATCCAAAAT | 1.04
TATCATCTAC | 1.04
ATTAGGTAGG | 1
TTTAGTAATC | 1.04
ACTGTATCCT | 1.17
GAAAGGAGAG | 0.984
ACATGCTTGG | 0.98
ATGGGGGCAA | 1.04
GCGTTCACTT | 1.02
TTGTATTGG | 0.966
AACATCTGCG | 1.04
AGAGAAAATG | 0.96

From the supplement of paper PMC10126150
